Source: the RNAGym collection of RNA variant scans (doi:10.1101/gad.245936.114)
Variants at the background level are over-represented here.

B1: tRNA (parent)
chain: CUCUCGGUAGCCAAGUUGGUUUAAGGCGCAAGACUUUAAUUUAUCACUACGAAAUCUUGAGAUCGGGCGUUCGACUCGCCCCCGGGAGAUUUUUUCCUCGAGCAA

Variants of: B1
Assay: nonsense suppression (GFP-seq) (ratio to wild type); higher = more function; SUP4oc tRNA, yeast GFP reporter sort-seq
Method in brief: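 Yeast carrying genome-integrated SUP4oc tRNA variants from a library with ~3% random mutations were grown in raffinose/galactose medium with 80 mg/L adenine. Each strain also carried a galactose-driven GFP ochre reporter and RFP. Cells were sorted into GFP/RFP bins, and each bin was Illumina-sequenced (phred ≥30). Nonsense suppression (GFPSEQ) is the bin median GFP/RFP, weighted by each variant's estimated cell share per bin, relative to wild-type SUP4oc; variants needed ≥100 reads and ≥30 cells.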

Nonsense suppression, 0.0404:
U8A A30G

Nonsense suppression, ≤ 0.026:
G7U A24C G67A
G7U G66A G67A G85C
G7U A9C U16C U57C
G7U U21G G88C
G7U G32C
U8A C27U A30C
U8A G10U A14G
G7U U17G A74G A89C
G7U G66U C81A
G7U U17A U22C C77A
G7U A74G
G7U U35A
U8A G18C A23U
G7U G32C A74G
G7U U16G G85U
U8A A30G U57A G78U G86A
U8A A13U A60G A74C
G7U A23G C82A
U8A C83U
G7U U70C
G7U G15U G84U A87C
G7U A24U G86U
G7U U16A A33G A60C
U8A A23C A54G C64U
G7U A74G U76G
U8A A13G G32U
U8A G25C C64G
U8A A30U A60G G61U
G7U C12G G19U G67U
G7U C80A
U8A G10U U22C
U8A G26U
G7U A9U U35A C75G C79A
G7U G69U
U8A A9C A30G G61A C75G
U8A C34G A60C
U8A A13U U20A
G7U C11A
G7U G85U
G7U G15C U76G
U8A G28U
G7U U63A G65U
G7U C27G G65A
G7U U57C C64G
U8A C29G U71C C72U
G7U A14U A24G U35G A60U G69U U70A
G7U C34A A60C G65A G66U G85C
G7U U55C C56G
G7U A33C C75G
U8A C56A G61A G84A G88U
G7U C29U A33G
U8A A13C G28A C29U G65C G85U
G7U C12U C64G C72G
G7U G65A U76A
G7U U8G G67U C68A U76G
G7U U8A A24U C34A G59U G69C
U8A A23C
G7U G10A G85C
G7U C64U
U8A A60G C64G
G7U G15U
G7U G18A U21G A24G A54U G65A U70C
U8A G26A G84A
G7U U16G G18C
U8A A89G
U8A A9G U58A C72G C79A
U8A C77U G88A
G7U C11A G15U A24G G86C
G7U U8A G66U C80A G86U
G7U A13G G19U U58A
G7U A33G C80U
G7U A33G U76C
G7U C34U U57G
U8A C27G G65C
U8A G19A G67A C83U
G7U G32A A60C A74G
U8A C27G A54G C79U
G7U A14C G61C G88C
G7C U58A C64A U71G
U8A A23U A33G
U8A A9U
G7U A9C U63G
G7U G28C
U8A C12G
U8A A14U U20A A74C
G7U C12U G18U G26C C34U
G7C U70C
U8A C68G
G7U A60U C64A G73C G78C
G7U U17C C34G
U8A A9U C82U C83A
G7U A87U
G7U A9C U70C G73U
U8A G28A A62C G84C
U8A G19C C34G
U8A C56A A74G C81G A87G
G7U G15C A23G U55G U57A
G7U U16C
U8A G18A G59C C64U C75A C80U
G7U U17A C79A
G7U C12U
G7U U17A U20C A23G A31G A87G
G7U U55C C68U A89C
U8A A60G C77U
U8A C11G
U8A C11A
U8A C11U
G7U A24C G67A C82G
U8A C34A U76A G78C C81G G86C
U8A C82U C83A
G7U G18A
G7U C27U U35A A74C
G7U G18C A30G
U8A A13U A14G U57A U58A C68A C83A
U8A A9U C12A
G7U G26A G67A G73C
U8A A24U C27A G28C U76A
G7U G28U U57G
G7U C34U
G7U C34A
G7U G59U U71C
U8A C77G
U8A A62U G78A
G7C U57A
U8A A30U G61A U76G
G7U C12U G65C
G7U U55A C68G
G7U G19U
U8A A13U U17G G18C U57G A60C
G7U A31U
U8A C81A
U8A C11A G15A U20A U21G
U8A G18C G67C
G7U C11A U21A A23C
U8A A87G
G7U U17G U70G C80A
U8A A31C C64G U71A
G7U C68A C75U
G7U C29U G86C
G7U G65U
G7U A31C U55A G65A G86C
U8A C56U
U8A A23G C27G U58G C68A C79G G85C
G7U C11A G69C G84A
G7U A13C G69U A74C
G7U A30G
U8A G18U A31G G85A A87C
G7U C82G
G7U C29G G69U
G7U A23U G25A U57C U58C
G7U U16G U57A G78U G86C
G7U G86C
G7U A24G A33U G61A
U8A G15U G59A
U8A A24U G78A
G7U U22G C64U
G7U A30C U71C A74G
G7U A9C C77A
U8A G10C G61C G84C
U8A G15U U17C G85A
U8A C29U
U8A C34A C79U G85A
U8A C80G C83A
G7U A33G A60G C72G
G7U C12G A24U U55G

Nonsense suppression, 0.18:
U8A A14G
